Consider 46 molecules from PubChem BioAssay AID493208 (National Center for Advancing Translational Sciences (NCATS), 2011).

Out of some 44,000 compounds screened, about 340 (0.77%) were called active. Roughly 5% stayed inconclusive and do not appear here. The call rests on the fitted dose curve; in most records, active means well fitted inhibition curve with a large enough effect; inconclusive means small, poorly fitted or top-dose-only effect; inactive means flat fitted curve, though single readings scatter. Some of the results follow.
Potency means the concentration at half of the fitted maximal effect.

The test in a line: Acumen qHTS Assay for Inhibitors of the mTORC1 Signaling Pathway in MEF (Tsc2-/-, p53-/-) Cells: Sytravon. Further: nearly all actives have a fitted effect of over 50% in size.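 On activity change, negative = inhibition: plate controls were DMSO for no effect and rapamycin for full effect.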 The note with it: phospho-rpS6 immunofluorescence/PI, 24 h; series mostly up to 38.3 µM; activity change, negative = inhibition: at the top concentration. In short, it runs like this: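 Read-out: phospho-S6 Alexa-488 intensity over PI intensity per well, scored as % active cells using thresholds from rapamycin (7.5 nM) and DMSO controls. Tsc2-/-, p53-/- MEFs exposed to compound for 24 h; PI cell count recorded as viability.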
On to `O=C(CSCc1ccc(F)cc1)NCc1ccc(F)cc1`, for which the “activity change, negative = inhibition” value was inactive: -2.25%.

For `Cc1cccc(CC(=O)N2CC(=O)Nc3ccc(F)cc3C2c2ccccc2)c1` (stereo unspecified), the “activity change, negative = inhibition” value is inactive: 4.29%.

Regarding `COc1cc(NC(=O)CCCc2nnc3n(C)c(=O)c4sccc4n23)cc(OC)c1OC`, the “activity change, negative = inhibition” value is inactive: 2.45%.

For the molecule `CCc1ccccc1NC(=O)Nc1ccc2snnc2c1`, the “activity change, negative = inhibition” value was inactive: 1.1%.

Regarding `CCC(CC)C(=O)N1CCc2cc(OC)c(OC)cc2C1COc1ccc(F)cc1` (stereo unspecified), the “activity change, negative = inhibition” value was inactive: 11.1%.

Take `Cc1cccc(-n2ncc(C(=O)NCc3ccc4c(c3)OCO4)c2C2CCN(C(=O)OC(C)(C)C)CC2)c1`: the “activity change, negative = inhibition” value was inactive: 2.65%.

In the case of `O=C(CSc1nc(Nc2ccc(F)c(F)c2)c2ccccc2n1)c1ccc(Cl)cc1`, the “activity change, negative = inhibition” value is inactive: 0.59%.

For `CC(C)(C)OC(=O)N1CCC(c2c(C(=O)NCCN3CCOCC3)cnn2-c2ccc(F)cc2F)CC1`, the “activity change, negative = inhibition” value was inactive: -8.12%.

As for `CCc1ccc(NC(=O)CN2C(=O)CC(c3ccccc3)Sc3ccccc32)cc1` (stereo unspecified), the “activity change, negative = inhibition” value was inactive: 0.829%.

Consider `COc1ccc(-c2cccc(NS(=O)(=O)c3ccc(NC(C)=O)cc3)c2)nn1`, for which the “activity change, negative = inhibition” value was inactive: -7.79%.

Consider `CCOc1ccccc1Nc1nc2c(S(=O)(=O)c3ccc(C)cc3)nnn2c2ccsc12`, for which the “activity change, negative = inhibition” value was inactive: -2.72%.

Regarding `Cc1ccc(-c2nc3scc(CCNS(=O)(=O)c4ccc(Oc5ccccc5)cc4)n3n2)cc1`, the “activity change, negative = inhibition” value was inactive: -8.75%.

As for `CCc1cccc(C)c1NC(=O)CN1C(=O)c2cccc3cccc1c23`, the “activity change, negative = inhibition” value was inactive: -14.3%.

Regarding `CCCCCNC(=O)C1CCC(Cn2c(=O)c3sccc3n(CC)c2=O)CC1` (stereo unspecified), the “activity change, negative = inhibition” value is inactive: -2.03%.

Take `Cc1ccc2nc(CSc3nnc(NC(=O)c4ccc(C(C)(C)C)cc4)s3)cc(=O)n2c1`: the “activity change, negative = inhibition” value is inactive: 10.8%.

Turning to `CC(=O)Nc1ccc(NC(=O)c2ncoc2-c2ccco2)cc1`, the “activity change, negative = inhibition” value is inactive: 0%.

Take `CCOc1cc(/C=C(\C#N)C(=O)Nc2ccc(OC)cc2)ccc1OCc1cc(=O)n2nc(CC)sc2n1`: the “activity change, negative = inhibition” value was inactive: 1.26%.

In the case of `Cc1ccc(CN2C(=O)C3(c4ccccc42)N(c2ccc(C)c(Cl)c2)C(=O)CS3(=O)=O)cc1` (stereo unspecified), the “activity change, negative = inhibition” value is inactive: -21.2%.

With `CCc1nc2sc3c(N4CCCCC4)ncnc3c2c2c1CCCC2`, the “activity change, negative = inhibition” value was inactive: -16.1%.

In the case of `COc1cccc(/C=C(\C#N)C(=O)Nc2ccc(NC(C)=O)cc2)c1OC`, the “activity change, negative = inhibition” value is inactive: 6.46%.

With `COc1ccc(NC(=O)CSc2cn(CCNC(=O)c3ccc(OC)cc3)c3ccccc23)cc1`, the “activity change, negative = inhibition” value is inactive: -4.19%.

Turning to `Cc1oc(-c2cccc(Br)c2)nc1Cn1c(SCc2cccc(F)c2)nc2cccnc21`, the “activity change, negative = inhibition” value was inactive: 1.75%.

As for `O=C(CCC1N=C2c3ccccc3N=C(SCc3cccc(Cl)c3)N2C1=O)NCCc1ccccc1` (stereo unspecified), the “activity change, negative = inhibition” value is inactive: -0.217%.

For the molecule `COc1ccc(NC(=O)CCS(=O)(=O)c2ccc3c(c2)n(C)c(=O)c(=O)n3C)cc1Cl`, the “activity change, negative = inhibition” value is inactive: -4.84%.

In the case of `COc1ccc(Br)cc1CNC(=O)CSc1n[nH]c(-c2ccccc2)n1`, the “activity change, negative = inhibition” value is inactive: -1.1%.

Turning to `CCC(C)[C@H](N)c1nnc(SCc2ccc(Cl)c(Cl)c2)o1` (stereo partly specified), the “activity change, negative = inhibition” value was inactive: -3%.

`CC1=C(C(=O)Nc2ccccc2)C(c2ccc(O)cc2)n2nc(-c3ccc(Cl)cc3)nc2N1` (stereo unspecified): the “activity change, negative = inhibition” value was inactive: 9.68%.

For `Cc1ccc(S(=O)(=O)NCCSc2nnnn2-c2ccccc2)cc1`, the “activity change, negative = inhibition” value is inactive: 6.44%.

In the case of `COc1ccc2c(c1)NC(c1ccc(Cl)cc1)=NC(c1cccs1)=N2`, the “activity change, negative = inhibition” value is inactive: 2.69%.

With `CCn1c(CN2CCCCC2)nc2cc(NC(=O)COc3ccc(C(C)(C)C)cc3)ccc21`, the “activity change, negative = inhibition” value was inactive: -5.46%.

With `CC(C)(C)c1ccc(-c2nnc(-c3ccccc3NC(=O)c3cccc(C(F)(F)F)c3)o2)cc1`, the “activity change, negative = inhibition” value was inactive: -3.51%.

Regarding `CCCN1C(=O)C(Cc2nc3ccccc3c(=O)n2CC)c2cc(Br)ccc21` (stereo unspecified), the Potency is active: 14.7 µM.

Consider `Cc1ccc(C)c(Cn2c(=O)n(Cc3ccccc3)c(=O)c3sc4ccccc4c32)c1`, for which the “activity change, negative = inhibition” value was inactive: 0.0743%.

Take `Cc1ccc(/C=C/c2onc(C)c2S(=O)(=O)N2CCC(C(=O)NCc3ccco3)CC2)cc1`: the “activity change, negative = inhibition” value is inactive: -11%.

Take `Cc1ccc(CCNC(=O)c2ccc3c(c2)N(Cc2cc(C)ccc2C)C(=O)c2ccccc2S3=O)cc1` (stereo unspecified): the “activity change, negative = inhibition” value was inactive: 1.84%.

In the case of `COc1ccc2c(c1)NC(c1ccc(F)cc1)=NC(c1ccc(F)cc1)=N2`, the “activity change, negative = inhibition” value was inactive: -4.36%.

Regarding `CCOC(=O)c1cccc(NS(=O)(=O)c2cc(Br)cc3c2N(C(=O)C2CC2)CC3)c1`, the “activity change, negative = inhibition” value is inactive: 0%.

On to `COC(=O)c1ccc(OCC2c3cc(OC)c(OC)cc3CCN2C(=O)c2cccc(C)c2)cc1` (stereo unspecified), for which the “activity change, negative = inhibition” value is inactive: -7.77%.

Consider `COc1ccc(NC(=O)C2CCN(C3=NS(=O)(=O)C(c4ccc(C)c(C)c4)=C3C)CC2)cc1OC`, for which the “activity change, negative = inhibition” value is inactive: 0.258%.

Regarding `COc1cccc(N2CCN(C(=O)CN3CCSc4ccc(S(=O)(=O)N(C)C)cc43)CC2)c1`, the “activity change, negative = inhibition” value was inactive: 10.9%.

With `COc1ccc(CNC(=O)CCS(=O)(=O)c2cc(Br)cc3c2N(C(=O)C2CC2)CC3)cc1`, the “activity change, negative = inhibition” value is inactive: -10.5%.

Turning to `COc1cccc(CNC(=O)Cn2c(=O)n3nc(-c4cccc(C)c4)nc3c3ccccc32)c1`, the “activity change, negative = inhibition” value is inactive: 0.215%.

Turning to `CCCCN(Cc1ccccc1)S(=O)(=O)c1ccc2c(c1)CCN2C(=O)C1CCC1`, the “activity change, negative = inhibition” value is inactive: -10.3%.

`COc1ccc(Nc2ncnc3onc(C)c23)cc1Cl`: the “activity change, negative = inhibition” value is inactive: 6.41%.

As for `CCCSCCCNC(=O)C1CCCN(C(=O)c2cnn(-c3ccccc3)c2-n2cccc2)C1` (stereo unspecified), the “activity change, negative = inhibition” value was inactive: 0.569%.

Consider `O=C(Cn1nc(Cc2cccnc2)c2ccccc2c1=O)N1CCN(c2ccc(F)cc2)CC1`, for which the “activity change, negative = inhibition” value was inactive: -24.6%.
